The values that follow come from paper PMC9911399, “Two distinct binding modes provide the RNA-binding protein RbFox with extraordinary sequence specificity”.

First the molecules themselves.
B1: AGAGCCA (DNA:RNA)
RNA: GGGAGACCGGAAUUCAGAUUGUCCAGAGCCAUUAAAUCCCGUCGUAGCCACCA
DNA 1: CAATCTGAATTCCGGTCTCCC
DNA 2: TGGTGGCTACGACGGGATT
B2: UAAUUGC (DNA:RNA)
RNA: B1 RNA with A25U, G26A, G28U, C29U, C30G, A31C
DNA 1: CAATCTGAATTCCGGTCTCCC
DNA 2: TGGTGGCTACGACGGGATT
B3: GCUGAGC (DNA:RNA)
RNA: B1 RNA with A25G, G26C, A27U, C29A, C30G, A31C
DNA 1: CAATCTGAATTCCGGTCTCCC
DNA 2: TGGTGGCTACGACGGGATT
B4: GAACGGG (DNA:RNA)
RNA: B1 RNA with A25G, G26A, G28C, C29G, C30G, A31G
DNA 1: CAATCTGAATTCCGGTCTCCC
DNA 2: TGGTGGCTACGACGGGATT
B5: AUAGACC (DNA:RNA)
RNA: B1 RNA with G26U, C29A, A31C
DNA 1: CAATCTGAATTCCGGTCTCCC
DNA 2: TGGTGGCTACGACGGGATT
B6: GGGCGGA (DNA:RNA)
RNA: B1 RNA with A25G, A27G, G28C, C29G, C30G
DNA 1: CAATCTGAATTCCGGTCTCCC
DNA 2: TGGTGGCTACGACGGGATT
B7: UCAUUCC (DNA:RNA)
RNA: B1 RNA with A25U, G26C, G28U, C29U, A31C
DNA 1: CAATCTGAATTCCGGTCTCCC
DNA 2: TGGTGGCTACGACGGGATT
B8: AGACGCC (DNA:RNA)
RNA: B1 RNA with G28C, C29G, A31C
DNA 1: CAATCTGAATTCCGGTCTCCC
DNA 2: TGGTGGCTACGACGGGATT
B9: UCACAUA (DNA:RNA)
RNA: B1 RNA with A25U, G26C, G28C, C29A, C30U
DNA 1: CAATCTGAATTCCGGTCTCCC
DNA 2: TGGTGGCTACGACGGGATT
B10: CGCAUGC (DNA:RNA)
RNA: B1 RNA with A25C, A27C, G28A, C29U, C30G, A31C
DNA 1: CAATCTGAATTCCGGTCTCCC
DNA 2: TGGTGGCTACGACGGGATT
B11: GUAAUAU (DNA:RNA)
RNA: B1 RNA with A25G, G26U, G28A, C29U, C30A, A31U
DNA 1: CAATCTGAATTCCGGTCTCCC
DNA 2: TGGTGGCTACGACGGGATT
B12: CAGGAAU (DNA:RNA)
RNA: B1 RNA with A25C, G26A, A27G, C29A, C30A, A31U
DNA 1: CAATCTGAATTCCGGTCTCCC
DNA 2: TGGTGGCTACGACGGGATT
B13: UUACCCG (DNA:RNA)
RNA: B1 RNA with A25U, G26U, G28C, A31G
DNA 1: CAATCTGAATTCCGGTCTCCC
DNA 2: TGGTGGCTACGACGGGATT
B14: UUACGUG (DNA:RNA)
RNA: B1 RNA with A25U, G26U, G28C, C29G, C30U, A31G
DNA 1: CAATCTGAATTCCGGTCTCCC
DNA 2: TGGTGGCTACGACGGGATT
B15: CAACUCC (DNA:RNA)
RNA: B1 RNA with A25C, G26A, G28C, C29U, A31C
DNA 1: CAATCTGAATTCCGGTCTCCC
DNA 2: TGGTGGCTACGACGGGATT
B16: CGAUAGU (DNA:RNA)
RNA: B1 RNA with A25C, G28U, C29A, C30G, A31U
DNA 1: CAATCTGAATTCCGGTCTCCC
DNA 2: TGGTGGCTACGACGGGATT
B17: UAACAAC (DNA:RNA)
RNA: B1 RNA with A25U, G26A, G28C, C29A, C30A, A31C
DNA 1: CAATCTGAATTCCGGTCTCCC
DNA 2: TGGTGGCTACGACGGGATT
B18: UACUGAC (DNA:RNA)
RNA: GGGAGACCGGAAUUCAGAUUGUCCUACUGACUUAAAUCCCGUCGUAGCCACCA
DNA 1: CAATCTGAATTCCGGTCTCCC
DNA 2: TGGTGGCTACGACGGGATT
B19: GUCUGCC (DNA:RNA)
RNA: B18 RNA with U25G, A26U, A30C
DNA 1: CAATCTGAATTCCGGTCTCCC
DNA 2: TGGTGGCTACGACGGGATT
B20: CACAAGA (DNA:RNA)
RNA: B18 RNA with U25C, U28A, G29A, A30G, C31A
DNA 1: CAATCTGAATTCCGGTCTCCC
DNA 2: TGGTGGCTACGACGGGATT

Where a chain is given by its changes, count along the chain named. This is one part of the list.

The experiment has as its target T1, RBFOX1 RRM RbFoxmut (Fox-RRM*) (Homo sapiens, UniProt Q9NWB1 109-208, R118D;E147R;N151S;E152T).
T1 sequence: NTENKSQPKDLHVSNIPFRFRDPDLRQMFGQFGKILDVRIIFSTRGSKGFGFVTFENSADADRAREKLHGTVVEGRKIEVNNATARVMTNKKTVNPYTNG
Kind of experiment: EMSA; HiTS-Eq, 1 nM pool, 10 min; buffer printed only for the single-RNA assays: 10 mM Tris pH 7.5, 150 mM NaCl, 3.4 mM EDTA, 0.001% NP-40, 30 C. Particulars: tags: His6 N-terminal (pET28a); label: 5' 32P. An outline of the steps: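 Purified wild-type or mutant RbFox RRM at increasing concentrations was equilibrated with 1 nM of 5′-radiolabelled RNA carrying 7 randomized nucleotides for 10 min in 50 µL. Unbound RNA was separated by 8% native PAGE and sequenced. Relative association constants came from read-count changes of each RNA species compared with the control reaction, normalised to the cognate motif.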
B1: the binding signal is 0.0915 KA relative to UGCAUGU.
For B2, the binding signal was 0.0886 KA relative to UGCAUGU.
The figure for B3 is 0.102 KA relative to UGCAUGU; for B4 it is 0.125 KA relative to UGCAUGU.
For the molecule B5, the binding signal was 0.0619 KA relative to UGCAUGU.
In the case of B6 it was 0.0925 KA relative to UGCAUGU; in that of B7, 0.0698 KA relative to UGCAUGU.
In the case of B8, the binding signal is 0.06 KA relative to UGCAUGU.
The figure for B9 is 0.112 KA relative to UGCAUGU; for B10 it is 0.951 KA relative to UGCAUGU; for B11 it is 0.136 KA relative to UGCAUGU.
On to B12, for which the binding signal is 0.0834 KA relative to UGCAUGU.
Regarding B13, the binding signal was 0.0805 KA relative to UGCAUGU.
Consider B14, for which the binding signal was 0.0946 KA relative to UGCAUGU.
In the case of B15, the binding signal is 0.0674 KA relative to UGCAUGU.
For the molecule B16, the binding signal is 0.092 KA relative to UGCAUGU.
Consider B17, for which the binding signal is 0.0642 KA relative to UGCAUGU.
The figure for B18 is 0.0891 KA relative to UGCAUGU; for B19 it is 0.181 KA relative to UGCAUGU; for B20 it is 0.0712 KA relative to UGCAUGU.
